Reference: PubChem BioAssay AID624296 (National Center for Advancing Translational Sciences (NCATS), 2012)
Hit rate of the full screen: of about 350,000 compounds, about 9,900 (2.8%) were called active. The inconclusive results got no clear call from the source; some entries with a clear call stand among them for comparison. Calls come from the whole dose curve; as a rule, active = well fitted activation curve with a large enough effect; inconclusive = small, poorly fitted or top-dose-only effect; inactive = no such curve, though single readings can be large or run the other way. No potency is given beside an inconclusive call; the fits are too rough.

Test: A quantitative high throughput screen for small molecules that induce DNA re-replication in MCF 10a normal breast cells. Note: nearly all actives have a fitted effect of over 50% in size.
Settings: MCF 10A DNA re-replication, Hoechst nuclear intensity, 48 h; series mostly up to 46.1 µM
Potency is the fitted concentration of half-maximal effect; tags give direction and shape of the fitted curve.

Structure (SMILES)	Potency
O=C(c1ccc(-c2ccc([N+](=O)[O-])cc2)o1)N1CCCCC1	inconclusive [activator, single point]
O=C1Nc2ccccc2N(O)N1c1ccc(Cl)cc1	inconclusive [activator, partial curve, poor fit]
CCCOc1ccc(-c2nc(OC)c3ccccc3n2)cc1	inconclusive [activator, partial curve, poor fit]
COC(=O)C1=C(C)N(CC2CC2)C(=NCc2cccc(Cl)c2)N[C@H]1c1ccccc1	inactive
CC(=O)c1ccccc1Oc1nc(CN2CCOCC2)nc2scc(-c3cccs3)c12	inconclusive [activator, single point]
COc1ccc(C)c2sc(N(CCN(C)C)C(=O)/C=C/c3cccs3)nc12	inactive
COc1ccc2cc3cc(C(=O)Nc4ccccc4N4CCN(C)CC4)oc3nc2c1	inconclusive [activator, single point]
COC(=O)C1=C(C(=O)OC)SC(=C2C(=S)C(C)(C)N(C(=O)C3CC3)c3ccccc32)S1	inactive
Cc1ccnc(NC(=O)CCC(=O)N(CC(=O)NCc2ccccc2)Cc2ccco2)c1	inconclusive [activator, partial curve, poor fit]
Cc1ccc(/C=C2\SC(=S)N(CCCC(=O)Nc3ccccc3C(=O)O)C2=O)cc1	inconclusive [activator, partial curve, poor fit]
CON(C)C(=O)CC(CN(Cc1ccccc1)C(=O)OC(C)(C)C)c1ccc(Cl)cc1 (configuration not stated)	inconclusive [activator, single point]
O=C(CCC(=O)N1CCN(c2ccccc2F)CC1)N1CCN(c2ccccc2)CC1	inconclusive [activator, single point]
O=C(NCC1CCCO1)c1ccc(S(=O)(=O)Nc2ccc(F)cc2)cc1 (configuration not stated)	inactive
Cc1ccc(-c2csc(NC(=O)/C=C/c3cccs3)n2)cc1C	inconclusive [activator, partial curve, poor fit]
Clc1nnc(N/N=C/c2ccccc2)c2ccccc12	active: 18.4 µM
CC1CC(C)CN(c2ncc3c(n2)CC(c2ccccc2)CC3=O)C1 (configuration not stated)	inconclusive [activator, single point]
COc1ccc(-c2c(C#N)c(N)nc(Sc3ccc(Cl)cc3)c2C#N)cc1	inconclusive [activator, partial curve, poor fit]
COc1ccc(Nc2nc(N)c([N+](=O)[O-])c(NC3CCCCC3)n2)cc1	active: 16.4 µM
O=C(O)Cc1c[nH]c2ccc(O)cc12	inconclusive [activator, single point]
c1csc(-c2nnc(N3CCCCCC3)c3ccccc23)c1	inconclusive [activator, partial curve, poor fit]
CCn1cc(C(=O)N[C@H](C(=O)NCCO)C(C)C)c(=O)c2cc3c(cc21)OCO3	inactive

Structure (SMILES)	Potency
CCOC(=O)C(Cc1ccnc2ccccc12)=NO	inactive
COc1ccc(NC2CCCN(C(=O)c3ccccc3C(F)(F)F)C2)cc1 (configuration not stated)	inactive
Cn1nc(C(F)(F)F)c(C(=O)Nc2ccc(F)cc2F)c1Sc1cccc(Cl)c1	inconclusive [activator, single point]
O=c1oc(/C=C/c2ccc([N+](=O)[O-])s2)nc2ccccc12	inconclusive [activator, single point]
COc1ccc(CNCC(O)(c2ccc(Cl)cc2)c2ccc(Cl)cc2)cc1OC	inconclusive [activator, single point]
CC(=O)Nc1ccc(NC(=O)CN2CCCC(C)C2)c(Cl)c1 (configuration not stated)	inactive
O=C(/C=C/c1ccco1)OCC1CCCN2CCCCC12 (configuration not stated)	inconclusive [activator, single point]
O=C(N/N=C/c1cccc(O)c1)c1cc2c(ccc3ccccc32)o1	inconclusive [activator, single point]
O=C(CSc1ccc2ccccc2n1)NCCC1=CCCCC1	inconclusive [activator, full curve]
CCCCOc1nc2ccccc2nc1C(C#N)S(=O)(=O)c1ccccc1 (configuration not stated)	inconclusive [activator, partial curve]
Cc1ccnc(NCc2cc(C)ccc2O)c1	inconclusive [activator, partial curve, poor fit]
COc1ccc(N(C(=O)c2snc(C(N)=O)c2N)C(C(=O)NC2CCCC2)c2ccc(F)cc2)c(OC)c1 (configuration not stated)	inactive
CCCOc1ccc(S(=O)(=O)NCc2ccc(OC)cc2)cc1	inactive
CCOc1ccc(S(=O)(=O)Nc2ccc(C(=O)N/N=C/c3c(C)nn(-c4ccccc4)c3N3CCCC3)cc2)cc1	inconclusive [activator, partial curve]
CCCCC1=CC2=C(c3ccco3)C(=O)C(C)(OC(=O)c3ccc(OC)cc3)C(=O)C2=CN1c1ccccc1 (configuration not stated)	inconclusive [activator, single point]
COc1cccc(NC(=O)C(C)Sc2nnc(C3CC3)n2C2CC2)c1 (configuration not stated)	inactive
CC(C)(C)c1ccc(C(=O)Nc2nnc(C3=COCCO3)o2)cc1	inconclusive [activator, partial curve, poor fit]
Cc1cccc(NC(=O)c2nc[nH]c2C(=O)NC2CCN(C(=O)OC(C)(C)C)CC2)c1	inactive
O=C(CN1CCN(Cc2ccc3c(c2)OCO3)CC1)Nc1cc(S(=O)(=O)N2CCCC2)ccc1Cl	inconclusive [activator, single point]
O=C(Cc1ccccc1)N/N=C/c1ccc([N+](=O)[O-])s1	inconclusive [activator, partial curve]
Cc1ccc(S(=O)(=O)N2CCN(c3ccc([N+](=O)[O-])c4cccnc34)CC2)cc1	inconclusive [activator, partial curve, poor fit]
